Experimental data as given in publication PMC4336329 (PLoS ONE, 2015).
In all, about 310,000 compounds went through this assay and about 2,200 (0.71%) showed an effect of 50% or more. Effects have a minus sign here. The list shows a part of the results.

molecular target: human ether-à-go-go-related gene (hERG) potassium channel (human, UniProt Q12809); assay: primary screen, population patch clamp on CHO cells stably expressing hERG
Sequence (Q12809 whole entry, looked up): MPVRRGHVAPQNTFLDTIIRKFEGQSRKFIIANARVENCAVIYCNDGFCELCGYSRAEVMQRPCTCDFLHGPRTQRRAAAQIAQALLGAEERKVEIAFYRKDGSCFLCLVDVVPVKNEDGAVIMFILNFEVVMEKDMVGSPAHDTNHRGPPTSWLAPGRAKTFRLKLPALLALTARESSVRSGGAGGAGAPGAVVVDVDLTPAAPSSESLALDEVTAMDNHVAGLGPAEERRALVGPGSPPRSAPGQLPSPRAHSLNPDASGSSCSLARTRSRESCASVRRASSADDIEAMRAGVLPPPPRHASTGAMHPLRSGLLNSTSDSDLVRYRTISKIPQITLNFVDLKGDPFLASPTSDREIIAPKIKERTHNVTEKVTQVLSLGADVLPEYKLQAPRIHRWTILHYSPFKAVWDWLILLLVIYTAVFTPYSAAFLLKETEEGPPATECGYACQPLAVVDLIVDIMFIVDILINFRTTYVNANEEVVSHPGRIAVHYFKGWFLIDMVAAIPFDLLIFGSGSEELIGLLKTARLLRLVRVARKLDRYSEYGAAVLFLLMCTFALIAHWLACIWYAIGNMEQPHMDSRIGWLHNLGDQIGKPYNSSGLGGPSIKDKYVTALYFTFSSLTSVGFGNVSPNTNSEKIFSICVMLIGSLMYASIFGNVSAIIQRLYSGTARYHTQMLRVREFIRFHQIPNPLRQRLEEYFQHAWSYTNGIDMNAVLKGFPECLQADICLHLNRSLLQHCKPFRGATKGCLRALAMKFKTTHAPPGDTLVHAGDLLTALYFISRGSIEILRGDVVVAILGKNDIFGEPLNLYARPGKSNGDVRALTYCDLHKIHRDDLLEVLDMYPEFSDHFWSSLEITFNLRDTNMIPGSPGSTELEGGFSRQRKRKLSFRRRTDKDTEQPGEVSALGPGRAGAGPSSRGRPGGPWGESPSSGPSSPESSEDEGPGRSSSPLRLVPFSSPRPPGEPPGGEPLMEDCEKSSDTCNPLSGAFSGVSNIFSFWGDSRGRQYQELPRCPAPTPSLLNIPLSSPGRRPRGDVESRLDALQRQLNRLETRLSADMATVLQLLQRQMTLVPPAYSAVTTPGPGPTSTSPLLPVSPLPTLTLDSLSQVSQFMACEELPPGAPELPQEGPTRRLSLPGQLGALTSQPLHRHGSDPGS

Row | SMILES | hERG current change (%, negative = inhibition) at 1uM [%]
1 | Cc1cc(OCC(O)CN(C)C(=O)C(C)Oc2ccccc2)ccc1Cl (stereo not shown) | 13.5
2 | Cc1cccc(CSc2ncnc3nc[nH]c23)c1 | 6.73
3 | CCc1ccccc1NC(=O)Nc1ccc(F)cc1 | 3.13
4 | Cc1cc2ccccn2c1C(=O)c1nc(NCc2ccco2)ncc1Cl | 14.5
5 | CCCn1c(COc2ccccc2)nc2ccccc21 | 5.5
6 | Cc1ccc(CS(=O)Cc2ccc(C(=O)N3CCN(c4ccccn4)CC3)o2)cc1 (stereo not shown) | 3.2
7 | c1ccc(-c2cncn2-c2ccccc2)cc1 | 2.43
8 | O=C(Nc1nc2c(s1)CCCC2)c1cccs1 | 6.91
9 | On1c(-c2ccccc2Cl)nc2ccccc21 | 9.77
10 | CC(C)(C)c1ccc(N2C(=O)CC(C/C=C/c3ccccc3)C2=O)cc1 (stereo not shown) | 12.1
11 | Cc1cccc(C)c1OCc1nc2ccccc2[nH]1 | -2.81
12 | CCN(CC)c1ccc(/C=C/C(=O)C2C(=O)C=C(C)OC2=O)cc1 (stereo not shown) | 2.77
13 | CCOC(=O)c1c(NC(=O)c2ccc(N3C(=O)[C@@H]4[C@H](C3=O)[C@H]3C=C[C@@H]4C3)cc2)sc2c1CC(C)CC2 (stereo partly shown) | 14.2
14 | CSC(=NC#N)N1CCN(c2cccc(Cl)c2)CC1 | -0.195
15 | COc1ccc(-c2cc(C(=O)NCc3ccco3)c3ccccc3n2)c(OC)c1 | 9.25
16 | Cc1ccc(N=Nc2c(C)[nH][nH]c2=O)c(C)c1 | 11.4
17 | CCOc1ccc(S(=O)(=O)Nc2nc3ccccc3nc2-n2ccc(=NC(=O)c3cccs3)cc2)cc1 | 13.8
18 | Nc1ccccc1SC(C[N+](=O)[O-])c1ccccc1 (stereo not shown) | 12
19 | CC(Sc1nc2ccccc2c(=O)n1CCc1ccc(S(N)(=O)=O)cc1)C(=O)NC(N)=O (stereo not shown) | 12.3
20 | Cc1ccc2cc(CN(Cc3ccco3)C(=O)c3ccco3)c3nnnn3c2c1 | 8.58
21 | CCOc1ccc(C2NC(=O)NC(c3ccccc3)=C2C(C)=O)cc1OC (stereo not shown) | 14.7
22 | Cc1ccc(S(=O)(=O)n2nc(OC(=O)c3ccccc3C)cc2N)cc1 | 12.9
23 | COc1ccc(/C=C(/C#N)C(=O)Nc2ccc(C)cc2C)cc1C(=O)O | 14.9
24 | Cc1cccc(NC(=O)CSCC(=O)N(C)Cc2ccc(Cl)c(Cl)c2)c1 | 10.7
25 | Cc1ccc(Cl)cc1N1CCN(C(=O)c2ccc(NS(=O)(=O)c3c(C)noc3C)cc2)CC1 | 16.7
